Reference: the CheMixHub viscosity set

SMILES	viscosity (293.15 K, 101 kPa)	viscosity (298.15 K, 101 kPa)	viscosity (298.15 K, 101.33 kPa)	viscosity (303.15 K, 101 kPa)	viscosity (308.15 K, 100 kPa)	viscosity (308.15 K, 101.33 kPa)	viscosity (313.15 K, 100 kPa)	viscosity (313.15 K, 101 kPa)	viscosity (313.15 K, 101.33 kPa)	viscosity (318.15 K, 100 kPa)	viscosity (318.15 K, 101.33 kPa)	viscosity (323.15 K, 101 kPa)	viscosity (323.15 K, 101.33 kPa)
CC(=O)O	1.263 ± 0.032 mPa·s [study A] and 1.296 ± 0.034 mPa·s [study B] and 1.287 ± 0.028 mPa·s [study C] and 1.103 ± 0.14 mPa·s [study D] and 1.281 ± 0.034 mPa·s [study E]	1.086 ± 0.029 mPa·s, 0.9605 ± 0.026 mPa·s, 1.098 ± 0.14 mPa·s, 1.146 ± 0.064 mPa·s, 1.28 ± 0.028 mPa·s, 1.241 ± 0.033 mPa·s, 1.155 ± 0.029 mPa·s, 1.18 ± 0.026 mPa·s, 1.174 ± 0.031 mPa·s [several studies]	1.15 ± 0.01 mPa·s [study A] and 1.174 ± 0.004 mPa·s [study B] and 1.139 ± 0.011 mPa·s [study C] and 1.34 ± 0.013 mPa·s [study D] and 1.06 ± 0.05 mPa·s [study E]	0.884 ± 0.045 mPa·s [study A] and 1.1 ± 0.029 mPa·s [study B] and 1.085 ± 0.024 mPa·s [study C] and 1.055 ± 0.13 mPa·s [study D] and 1.021 ± 0.012 mPa·s [study E]	0.914 mPa·s [study A] and 0.976 ± 0.04 mPa·s [study B] and 0.98 ± 0.03 mPa·s [study C]	1.012 ± 0.012 mPa·s [study A] and 0.966 ± 0.025 mPa·s [study B] and 0.9795 ± 0.011 mPa·s [study C] and 0.91 ± 0.05 mPa·s [study D] and 0.972 ± 0.024 mPa·s [study E]	0.863 mPa·s [study A] and 0.913 ± 0.037 mPa·s [study B]	0.931 ± 0.023 mPa·s [study A] and 0.9601 ± 0.025 mPa·s [study B] and 0.9283 ± 0.02 mPa·s [study C] and 0.8948 ± 0.024 mPa·s [study D] and 0.905 ± 0.009 mPa·s [study E] and 0.987 ± 0.016 mPa·s [study F] and 0.9369 ± 0.025 mPa·s [study G]	0.9076 ± 0.0064 mPa·s [study A] and 1 ± 0.05 mPa·s [study B] and 0.86 ± 0.04 mPa·s [study C] and 0.9003 ± 0.045 mPa·s [study D] and 0.907 ± 0.023 mPa·s [study E]	0.822 mPa·s [study A] and 0.847 ± 0.034 mPa·s [study B] and 0.85 ± 0.03 mPa·s [study C]	0.853 ± 0.01 mPa·s [study A] and 0.834 ± 0.022 mPa·s [study B] and 0.8536 ± 0.01 mPa·s [study C] and 0.851 ± 0.022 mPa·s [study D]	0.823 ± 0.021 mPa·s [study A] and 0.823 ± 0.008 mPa·s [study B] and 0.8288 ± 0.022 mPa·s [study C] and 0.7628 ± 0.02 mPa·s [study D] and 0.8724 ± 0.023 mPa·s [study E] and 0.8228 ± 0.023 mPa·s [study F]	0.7644 ± 0.0054 mPa·s [study A] and 0.818 ± 0.0068 mPa·s [study B] and 0.7967 ± 0.041 mPa·s [study C] and 0.798 ± 0.02 mPa·s [study D]
O=S(=O)(O)O				22.5 ± 0.59 mPa·s [study A] and 20.01 ± 0.54 mPa·s [study B] and 210 ± 6.6 mPa·s [study C]									
ClCCCl		0.7812 ± 0.01 mPa·s [study A] and 0.773 ± 0.009 mPa·s [study B] and 0.771 ± 0.02 mPa·s [study C] and 0.7833 ± 0.02 mPa·s [study D] and 0.7808 ± 0.0092 mPa·s [study E]		0.7307 ± 0.0069 mPa·s [study A] and 0.7256 ± 0.019 mPa·s [study B] and 0.71 ± 0.071 mPa·s [study C] and 0.74 ± 0.019 mPa·s [study D] and 0.7295 ± 0.006 mPa·s [study E]									

± gives the uncertainty stated by the source. For part of its entries the source gives two or more results. They are shown here; other results are not. There may be further records. Values that stand side by side are repeats (runs, samples, wells, individuals or studies). Brackets tell where a record comes from. Letters count within one entry.
